Source: ChEMBL document CHEMBL5308541, “MAIP: An Open-Source Tool to Enrich High-Throughput Screening Output and Identify Novel, Druglike Molecules with Antimalarial Activity” (ACS Med Chem Lett, 2023)
Screen size: about 150,000 compounds; about 540 (0.36%) showed an effect of 50% or more. The list shows a part of the results.

Each compound was assayed on Plasmodium falciparum (assay: Primary screen in NF54 nanoGlo assay, in single point, at 2uM, 72h; a lower Z score goes with more inhibition). Details: timepoint 72 hour.
Type: functional, Erythrocyte
In the case of COc1ccc(-c2cncc(C(=O)Nc3cnccc3OC)c2)cc1, the “% Inhibition” value is reported as -3% and the Z score is reported as 0.52.
With CN(Cc1ccc2cc[nH]c2n1)Cc1noc(C2CCC2)n1 the “% Inhibition” value was 0% and the Z score was 0.01.
CCC(C)CCC(=O)N1CCCCCC(Nc2cc(-n3ccnc3)ncn2)C1 (stereo unspecified) was tested, and the “% Inhibition” value was -4% and the Z score was 0.68.
With O=C(NCCc1c[nH]cn1)c1cnc(Nc2ccccc2)nc1 the “% Inhibition” value was -8% and the Z score was 1.66.
In the case of N#C[C@@H](NC(=O)c1cccc(-n2cccn2)n1)C1CCCCC1, the “% Inhibition” value is reported as -8% and the Z score is reported as 1.32.
In the case of Cc1nc2c([nH]1)CN(C(=O)CN1CCC[C@H](O)C1)CC2, the “% Inhibition” value is reported as 3% and the Z score is reported as -0.44.
With CCn1nc(C(=O)N2CCN(Cc3cccc(F)c3)C(=O)C2)cc1C the “% Inhibition” value was -1% and the Z score was 0.14.
In the case of COc1ccc2sc(C(=O)N3CCC[C@H](N4CCNCC4=O)C3)c(C)c2c1, the “% Inhibition” value is reported as 2% and the Z score is reported as -0.38.
With O=S1(=O)CCN(C2CCN(Cc3cnn4ccccc34)CC2)CC1 the “% Inhibition” value was 1% and the Z score was -0.23.
With CN(C)CCCN(CCCN(C)C)C(=O)CCc1ccc(O)c(Cl)c1 the “% Inhibition” value was 3% and the Z score was -0.59.
CN(C)Cc1ccc(N2CCN(c3cncc(OCC4CCCC4)n3)CC2)nc1 was tested, and the “% Inhibition” value was 10% and the Z score was -1.77.
For Cn1ccc(NC(=O)CN2CCOc3ccc(CO)cc3C2)n1, the “% Inhibition” value was 4% and the Z score was -0.74.
For COC1(c2nc(C3CCOCC3)no2)CCN(c2ncnc3[nH]ccc23)CC1, the “% Inhibition” value was 0% and the Z score was -0.02.
For C[C@@H](c1ncc(-c2ccccc2)o1)N1CCC(C(=O)NCCCN2CCCCC2)CC1, the “% Inhibition” value was -5% and the Z score was 1.18.
O=S1(=O)CCN(C2CCN(c3ccnc(C(F)(F)F)c3)CC2)CC1 was tested, and the “% Inhibition” value was -8% and the Z score was 1.26.
In the case of O=C(c1cc2ccccc2o1)N1CCC(N2CCN(c3ccc(C(F)(F)F)cn3)CC2)CC1, the “% Inhibition” value is reported as -8% and the Z score is reported as 1.24.
With COc1ccccc1COCC1CN(C(C)C(O)c2ccc(O)cc2)CC(COCc2ccccc2OC)O1 (stereo unspecified) the “% Inhibition” value was 4% and the Z score was -0.92.
With c1ccc(CCN2CCC([C@H]3CCN(c4ncccn4)C3)CC2)cc1 the “% Inhibition” value was 0% and the Z score was -0.06.
For Cc1ccc2[nH]c(-c3cc4n(n3)CCN(c3ccnc(N)n3)C4)nc2c1C, the “% Inhibition” value was 84% and the Z score was -16.64.
In the case of CC1CN(C(=O)C(c2cncn2C)N(C)C)CC(C)O1 (stereo unspecified), the “% Inhibition” value is reported as -5% and the Z score is reported as 0.9.
With Cn1cc(-c2cncc(C(=O)Nc3ccc(Oc4nncc5ccccc45)c(Cl)c3)c2)cn1 the “% Inhibition” value was -3% and the Z score was 0.74.
With Cc1ccc(CN2CCC(CNC(=O)c3n[nH]nc3C)CC2)o1 the “% Inhibition” value was -4% and the Z score was 0.73.
In the case of CNc1ccnc(NCCCN2CCC(C(N)=O)CC2)n1, the “% Inhibition” value is reported as -8% and the Z score is reported as 1.46.
With CC(C)Nc1ncc(CN2CCN(C/C=C/c3ccccc3)CC2)cn1 the “% Inhibition” value was -5% and the Z score was 0.91.
FC(F)(F)Oc1ccccc1-c1ccc(-n2ccnc2)nn1 was tested, and the “% Inhibition” value was -13% and the Z score was 2.04.
COc1ccccc1-n1cc(C(=O)N2CCN(Cc3cccc(C)c3)C(=O)C2)cn1 was tested, and the “% Inhibition” value was -8% and the Z score was 1.32.
In the case of CC(C)c1ccc(COc2ccc(O)c(-c3c[nH]nc3-c3ccc4c(c3)OCCCO4)c2)cc1, the “% Inhibition” value is reported as -4% and the Z score is reported as 0.55.
With COc1ccc2nccc(N3CCC(O)CC3)c2c1 the “% Inhibition” value was 5% and the Z score was -0.83.
CCc1nnc(C[C@@H]2CC[C@H](Nc3nccc(N4CCCC4)n3)C2)o1 was tested, and the “% Inhibition” value was -14% and the Z score was 2.71.
With CNc1nc(N[C@H]2CCCN(Cc3ccc(Cl)cc3)C2)nc2c1CCC2 the “% Inhibition” value was 49% and the Z score was -8.5.
For Cc1ccc2c(C(=O)NCC3(CN4CCCC4)CC3)cnn2c1, the “% Inhibition” value was 8% and the Z score was -1.46.
COc1cccc(-c2nc3cnccn3c2NCCC(=O)NC2CCN(C)CC2)c1 was tested, and the “% Inhibition” value was 3% and the Z score was -0.63.
With CNS(=O)(=O)c1cc(-c2ccc(N(C)Cc3ccccc3)nn2)ccc1C the “% Inhibition” value was -11% and the Z score was 2.26.
For O=C(C(=O)N1CCN(CC2OCCO2)CC1)N1CCOCC1, the “% Inhibition” value was 5% and the Z score was -0.82.
c1cc(-c2nc(CNc3cnn(CCN4CCCCC4)c3)cs2)cs1 was tested, and the “% Inhibition” value was 2% and the Z score was -0.32.
For CC1(N2CCC2)CCC(NC[C@H]2CCN(Cc3ccccc3)C2)CC1 (stereo partly specified), the “% Inhibition” value was 73% and the Z score was -12.59.
For CC(=O)N1CCC(CNc2cc(C)nc3ccc(C(F)(F)F)cc23)CC1, the “% Inhibition” value was -3% and the Z score was 0.63.
For Cc1ccc(OC[C@@H](O)CNc2nccc(-c3ccncc3)n2)c(C)c1, the “% Inhibition” value was -6% and the Z score was 1.1.
With OCc1cc2ccccc2nc1-c1cccc2[nH]ccc12 the “% Inhibition” value was -1% and the Z score was 0.28.
In the case of Cc1cc(C)nc(Nc2cccc(C(=O)Nc3cccc4[nH]ccc34)c2)n1, the “% Inhibition” value is reported as -10% and the Z score is reported as 1.71.
With COc1cccc(-c2cc(C(=O)Nc3cnn4c3NCCC4)n[nH]2)c1 the “% Inhibition” value was 6% and the Z score was -0.85.
With C[C@H](NCc1cccc(-c2cnn(C)c2)c1)c1cnc2ccsc2c1 the “% Inhibition” value was 4% and the Z score was -0.95.
For CN1CCN2CCN(Cc3ccc(OCCn4ccnc4)cc3)C[C@@H]2C1, the “% Inhibition” value was 4% and the Z score was -0.58.
O=C(NCc1ccc2ncccc2c1)c1ccccc1Br was tested, and the “% Inhibition” value was 3% and the Z score was -0.57.
For CC(C)(CN[C@H]1CCCN(c2nc3ccccc3s2)C1)CN1CCOCC1, the “% Inhibition” value was -5% and the Z score was 0.95.
In the case of c1ccc(-c2cc(CNC3CCN(c4ncnc5[nH]cnc45)CC3)on2)nc1, the “% Inhibition” value is reported as -2% and the Z score is reported as 0.31.
In the case of Cc1cn(CC(=O)N2CCC(c3cc(C(C)C)n[nH]3)CC2)c(=O)[nH]c1=O, the “% Inhibition” value is reported as -9% and the Z score is reported as 1.87.
For CN1CCC[C@H](Nc2ccc3cc(Cl)ccc3n2)C1, the “% Inhibition” value was 14% and the Z score was -3.01.
For CN1CCCC[C@@H]1CC(=O)N1CCN(c2nccc(-c3ccccc3)n2)CC1, the “% Inhibition” value was 1% and the Z score was -0.26.
Cc1ccnc(NCc2cnc3ccccc3c2)n1 was tested, and the “% Inhibition” value was -1% and the Z score was 0.28.
In the case of CCC(=O)c1cccc(-c2ccc(C(=O)N(CC)C[C@H]3CCN(C)C3)cc2)c1, the “% Inhibition” value is reported as -4% and the Z score is reported as 0.78.
CCn1ccc2ccc(CN3CCc4[nH]nc(C5CC5)c4C3)cc21 was tested, and the “% Inhibition” value was -1% and the Z score was 0.14.
C[C@@H](c1ccc(-c2ccc3[nH]cnc3c2)cc1)N1CCCC1 was tested, and the “% Inhibition” value was 2% and the Z score was -0.36.
